Source: article PMC4336329 (PLoS ONE, 2015)
About 14,000 (4.5%) of roughly 310,000 compounds showed an effect of 50% or more. The effect is printed as a negative number. The list shows a part of the results.

These compounds were tested against human ether-à-go-go-related gene (hERG) potassium channel (human, UniProt Q12809) (assay: primary screen, population patch clamp on CHO cells stably expressing hERG).
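Note: peak tail current of the secondary pulse compared with the same well before compound.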

human ether-à-go-go-related gene (hERG) potassium channel, sequence (Q12809 whole entry, looked up): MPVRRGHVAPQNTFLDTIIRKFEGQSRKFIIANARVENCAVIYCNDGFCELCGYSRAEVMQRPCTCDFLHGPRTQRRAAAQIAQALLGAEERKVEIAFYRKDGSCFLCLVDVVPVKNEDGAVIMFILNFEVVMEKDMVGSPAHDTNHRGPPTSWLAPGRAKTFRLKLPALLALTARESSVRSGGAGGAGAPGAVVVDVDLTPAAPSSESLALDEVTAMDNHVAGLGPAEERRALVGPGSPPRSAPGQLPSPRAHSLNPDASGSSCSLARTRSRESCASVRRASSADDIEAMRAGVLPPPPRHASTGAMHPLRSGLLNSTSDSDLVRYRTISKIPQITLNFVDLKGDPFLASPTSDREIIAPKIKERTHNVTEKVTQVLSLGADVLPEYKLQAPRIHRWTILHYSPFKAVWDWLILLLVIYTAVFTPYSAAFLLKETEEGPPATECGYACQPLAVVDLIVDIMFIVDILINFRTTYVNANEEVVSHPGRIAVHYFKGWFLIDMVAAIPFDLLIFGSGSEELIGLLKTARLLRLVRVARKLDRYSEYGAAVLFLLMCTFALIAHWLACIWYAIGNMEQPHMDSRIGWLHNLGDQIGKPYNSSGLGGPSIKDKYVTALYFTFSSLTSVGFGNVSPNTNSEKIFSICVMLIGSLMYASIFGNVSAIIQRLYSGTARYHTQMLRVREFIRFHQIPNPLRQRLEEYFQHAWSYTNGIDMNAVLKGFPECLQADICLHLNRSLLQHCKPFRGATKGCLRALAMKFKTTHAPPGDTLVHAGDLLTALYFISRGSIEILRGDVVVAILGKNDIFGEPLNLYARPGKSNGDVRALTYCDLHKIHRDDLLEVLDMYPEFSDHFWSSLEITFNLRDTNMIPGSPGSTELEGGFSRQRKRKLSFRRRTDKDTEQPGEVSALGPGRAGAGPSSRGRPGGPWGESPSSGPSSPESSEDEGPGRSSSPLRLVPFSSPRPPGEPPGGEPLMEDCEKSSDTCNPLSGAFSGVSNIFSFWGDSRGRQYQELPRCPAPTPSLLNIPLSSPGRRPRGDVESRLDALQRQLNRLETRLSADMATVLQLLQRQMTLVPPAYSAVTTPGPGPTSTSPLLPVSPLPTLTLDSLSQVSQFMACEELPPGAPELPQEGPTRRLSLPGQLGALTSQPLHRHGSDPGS

Compound	hERG current change (%, negative = inhibition) at 10uM [%]
Cc1cc(=O)n2nc(N3CCCC3C(=O)NCc3ccccn3)sc2n1 (stereo not drawn)	12.7
Cc1nnc2n(-c3ccccc3)c(=O)c3ccccc3n12	7.19
Cc1ccc(-n2c(-c3ccc(Br)cc3)c[n+]3c2CCc2ccc4cccnc4c2-3)cc1.[Br-]	-74.2
N#Cc1c(N2CCOCC2)nc(-c2ccco2)c2c1CCCC2	2.48
Cl.O=c1cc(-c2ccccc2)[nH]n1-c1nc2ccccc2[nH]1	7.02
CCCCNS(=O)(=O)c1ccc2nc(-c3cccnc3)cc(C(=O)NC(C)C)c2c1	16.7
CCC(=O)N1CCN(c2ccccc2NC(=O)Cc2ccc(Cl)cc2)CC1	-68.6
O=CN1CCN(C2CC(=O)N(c3ccc(Br)cc3)C2=O)CC1 (stereo not drawn)	6.1
Cc1cccc(NS(=O)(=O)c2nnc(NC(=O)c3cccc(C)c3)s2)c1	2.44
Cc1cc(OCC(=O)OCC(=O)NCc2ccc3c(c2)OCO3)ccc1Cl	18.5
Cc1occc1-c1nnc(SCC(=O)N(C)c2ccccc2)n1C	-4.33
CCC(=O)Nc1ccc(N2CCC(C)CC2)cc1	14.8
Clc1ccc2c(c1)nc1n2CCCC1	1.2
CCn1c(C)nc2cc(C(=O)NNC(=S)Nc3ccc(Cl)cc3Cl)ccc21	0.0231
COc1ccccc1/C=N/NC(=O)CO	16.4
CCc1ccc(OC)c(S(=O)(=O)NCCOc2ccccc2)c1	-5.9
CCN1CC(CN(C)Cc2nc(-c3ccco3)oc2C)CC1=O (stereo not drawn)	10.4
Cc1nnc(SCc2ccccc2C#N)n1-c1ccccc1	4.24
Cc1c(C(=S)Nc2ccccc2)cnn1-c1ccccc1	-0.289

Compound	hERG current change (%, negative = inhibition) at 10uM [%]
Cn1cc(CNC(=O)C2CCC(=O)N(Cc3ccc(Cl)cc3)C2)cn1 (stereo not drawn)	-1.76
O=C(CCc1ccccc1)N1C[C@H]2C[C@@H](C1)c1cccc(=O)n1C2	-16
CCN(CC)c1ccc(C2CC(=O)Nc3cc(OC)c(OC)cc32)cc1 (stereo not drawn)	-7.45
CCCOc1ccc(N2C(=O)CC(N3CC=C(c4ccccc4)CC3)C2=O)cc1 (stereo not drawn)	8.23
CCOc1cc(/C=N/Nc2nn3cnnc3c3ccccc23)ccc1O	-8.74
COc1ccc(NC(=O)N2CCc3ccccc3C2)c(OC)c1	8.36
Cc1ccc(S(=O)(=O)N2CCOCC2)cc1NC(=O)COC(=O)c1cnccn1	5.4
COc1ccc(N2CCN(c3cnc4ccccc4n3)CC2)cc1	5.76
C[C@H]1O[C@@H](OC2CC[C@]3(C=O)[C@H]4CC[C@]5(C)[C@@H](C6=CC(=O)OC6)CC[C@]5(O)[C@@H]4CC[C@]3(O)C2)CC2OC(C)(C)OC21 (stereo partly drawn)	0.41
CCc1ccc(CNC(=O)CCc2nnc(Cc3cccc(C(F)(F)F)c3)o2)nc1	-41.1
O=C(CCn1c(=O)oc2ccccc21)N1CCN(c2ccc(F)cc2)CC1	-58
COC(=O)c1ccccc1NC(=O)C1CCN(C(=O)c2cc(OC)cc(OC)c2)CC1	-37.6
CCOc1ncnc2c1[nH]c1ccccc12	9.71
CCCn1nnnc1NCc1ccc(N(CC)CC)cc1	10.3
Cc1cc(C)nc(NC(=O)c2cc([N+](=O)[O-])cc([N+](=O)[O-])c2)n1	0.675
COc1ccc(C2c3[nH]c4ccccc4c3C[C@H]3C(=O)N(c4ccccc4C(=O)N4CCC[C@@H]4C(=O)O)C(=O)N23)cc1 (stereo partly drawn)	14.8
Cc1nnsc1NC(=O)OCC(C)C	26.6
Cc1[nH]n(-c2ccc(Br)cc2)c(=O)c1/C=N/NC(=O)c1ccccc1	10.4
CN(C(=O)COC(=O)CNC(=O)c1ccc(Cl)cc1Cl)c1ccccc1	38.1

Compound	hERG current change (%, negative = inhibition) at 10uM [%]
CCCCN(CC)Cc1ccc(CNC(=O)Nc2ccc(F)cc2)o1	-32.1
COc1ccc(-c2noc(COc3ccc4c(c3)OCO4)n2)cc1OC	4.02
COc1ccccc1CNC(=O)COC(=O)c1nc(Cl)ccc1Cl	-2.78
Cn1cc(C(=O)Nc2ccc(F)c(Cl)c2)cn1	0.537
CC1=C(C(=O)OCC2CCCCC2)C(c2ccc(O)cc2)NC(=O)N1 (stereo not drawn)	12.7
c1ccc2c(-c3nnc4n3CCCCC4)cc(-c3ccncc3)nc2c1	-48.7
COC(=O)C1=C(C)N(c2ccc(OC)c(OC)c2)C(=O)C1	20.5
O=C1C2C3CCCC3=C3CCCC3C2C(=O)N1c1ccc(F)cc1 (stereo not drawn)	2.87
CCOC(=O)CCNC(=O)N1CCC(CCC(=O)NCc2ccc(F)cc2)CC1	7.71
C=CCN(Cc1cc(OC)ccc1OC)S(=O)(=O)N(C)C	-1.96
NS(=O)(=O)c1ccc(CCNC(=O)C(=O)c2c[nH]c3ccccc23)cc1	-14.3
Cc1ccc(C(C(=O)NCc2ccccc2)N(C(=O)c2csnn2)c2cccc3ccccc23)o1 (stereo not drawn)	-13.2
COc1ccc(OCCNC(=O)C(Cc2c[nH]c3ccccc23)NC(C)=O)cc1 (stereo not drawn)	7.49
CC1(C)CC(=O)c2cnc(NC(=O)CCc3ccccc3)nc2C1	-6.5
Cc1ccc2nc(-c3ccc4c(c3)OCCO4)cc(C(=O)O)c2c1	4.86
O=S(=O)(c1ccc(-n2cnnn2)cc1)N1CCNCC1	-6.09
CC(C)(C)NC(=O)Cc1ccc(S(=O)(=O)N2CCCC2)s1	15.2
O=c1oc2cc(Br)ccc2n1Cc1ccccc1	18.6
CN(C(=O)CSC1=NCCS1)c1ccccc1	11.9
